Reference: PubChem BioAssay AID588342 (National Center for Advancing Translational Sciences (NCATS), 2011)
The campaign covered roughly 360,000 compounds. About 25,000 (6.9%) were called active. The shares of active, inactive and inconclusive entries below differ from those in the screen. Calls come from the whole dose curve; as a rule, active = well fitted inhibition curve with a large enough effect; inconclusive = small, poorly fitted or top-dose-only effect; inactive = flat fitted curve, though single readings scatter. A potency beside an inconclusive call is a rough fit, not a confirmed value.

Target: Luciferin 4-monooxygenase (Photinus pyralis) (UniProt P08659)
Assay: qHTS profiling assay for firefly luciferase inhibitor/activator using purifed enzyme and Km concentrations of substrates (counterscreen for miR-21 project); note: nearly all actives have a fitted effect of over 55% in size
Conditions: purified FLuc, luminescence inhibition; series mostly up to 57.5 µM
How it was run: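 Purified P. pyralis luciferase (10nM final) with 10uM D-luciferin and 10uM ATP (Km levels) in 50mM Tris acetate pH 7.5, 10mM Mg acetate, 0.01% Tween-20, 0.05% BSA; qHTS 6-point titration, ~60 µM downward; luminescence read.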
Potency is the fitted concentration of half-maximal effect; tags give direction and shape of the fitted curve.

Sequence of UniProt P08659 (P08659 whole entry, looked up): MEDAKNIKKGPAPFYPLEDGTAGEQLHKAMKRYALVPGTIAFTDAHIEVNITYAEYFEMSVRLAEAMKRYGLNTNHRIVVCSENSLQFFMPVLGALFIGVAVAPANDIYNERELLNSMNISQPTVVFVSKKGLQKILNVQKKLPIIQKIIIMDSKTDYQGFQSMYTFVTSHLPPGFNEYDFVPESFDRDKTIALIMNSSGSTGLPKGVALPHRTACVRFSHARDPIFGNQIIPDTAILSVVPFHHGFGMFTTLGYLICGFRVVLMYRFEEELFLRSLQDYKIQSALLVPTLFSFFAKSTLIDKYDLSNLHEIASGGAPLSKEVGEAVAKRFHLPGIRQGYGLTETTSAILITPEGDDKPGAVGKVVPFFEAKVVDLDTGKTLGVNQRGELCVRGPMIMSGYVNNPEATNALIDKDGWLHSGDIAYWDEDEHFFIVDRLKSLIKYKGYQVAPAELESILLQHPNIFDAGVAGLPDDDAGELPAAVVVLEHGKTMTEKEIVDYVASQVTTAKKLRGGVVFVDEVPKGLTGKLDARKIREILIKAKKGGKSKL

Question: Which Potency does the source give for CCCc1nn2c(=O)cc(COC(=O)c3ccc(NC(=O)c4cccs4)cc3)nc2s1 here?
Answer: inactive

Question: With CCc1c(O)nc2sc3ccccc3n2c1=O as the compound, how does the Potency read?
Answer: inconclusive: 37.9 µM [inhibitor, partial curve, poor fit]

Question: For COc1ccc(Cl)cc1NC(=O)c1cccnc1, which Potency is on record?
Answer: inactive

Question: For CCOc1ccccc1CNC(=O)c1ccc(NC(=O)C2=CSCCO2)cc1, which Potency is on record?
Answer: inconclusive: 37.9 µM [inhibitor, partial curve, poor fit]

Question: Cc1sc2ncnc(N3CCC(C(=O)Nc4ccc(F)cc4Cl)CC3)c2c1C was tested. Which Potency did it give?
Answer: inactive

Question: For Cc1cc2cccc(C)c2nc1SCC(=O)NCC1CCCO1 (stereo not drawn), which Potency is on record?
Answer: inconclusive: 33.8 µM [inhibitor, partial curve, poor fit]

Question: How did the Potency turn out when COc1ccc(NC(=O)c2c(C)oc3ccc(O)c(CN4CCN(C)CC4)c23)cc1Cl was run?
Answer: inactive

Question: Which Potency does the source give for COc1cc(OC)cc(-c2cc3nc(C)c(CCC(=O)O)c(C)n3n2)c1 here?
Answer: active: 15.1 µM

Question: CCOC(=O)c1cc(-c2ccccc2)sc1N was tested. Which Potency did it give?
Answer: active: 21.3 µM

Question: For Cc1ccc(-c2nnc(Nc3ccc(C(N)=O)cc3)c3ccccc23)cc1S(=O)(=O)N1CCCCC1, which Potency is on record?
Answer: inconclusive: 16.9 µM [inhibitor, partial curve, poor fit]

Question: For O=c1c2c(nc3n1CCCCC3)sc1c(O)cccc12, which Potency is on record?
Answer: active: 4.26 µM

Question: For O=C(c1cc(-c2ccccc2)nc2ccccc12)N1CCN(c2ccccc2O)CC1, which Potency is on record?
Answer: active: 10.7 µM

Question: O=C1COc2ccc(C(=O)COC(=O)Cc3ccsc3)cc2N1 was tested. Which Potency did it give?
Answer: inconclusive: 26.9 µM [inhibitor, partial curve, poor fit]

Question: With CC(=O)NNc1[nH]c2c(c(=O)c1[N+](=O)[O-])c(=O)n(C)c(=O)n2C as the compound, how does the Potency read?
Answer: inconclusive: 15.1 µM [inhibitor, partial curve, poor fit]

Question: How did the Potency turn out when CCCC(C)NC(=O)c1ccc(F)cc1 (stereo not drawn) was run?
Answer: inactive

Question: How did the Potency turn out when COc1ccc(CCNc2nc(C)c(C(C)=O)s2)cc1OC was run?
Answer: inconclusive: 21.3 µM [inhibitor, partial curve]

Question: How did the Potency turn out when COc1cc(NC(=O)c2ccc(C(=O)Nc3cc(OC)c(Cl)cc3OC)cc2)c(OC)cc1Cl was run?
Answer: inactive

Question: Which Potency does the source give for O=C(NC(=S)Nc1ccccc1O)c1ccccc1Cl here?
Answer: active: 23.9 µM

Question: How did the Potency turn out when Cn1c(SCC(=O)NNC(=O)c2ccccc2O)nnc1-c1ccccc1 was run?
Answer: inconclusive: 26.9 µM [inhibitor, single point]

Question: With Cc1cc(C(=O)N/N=C/c2c(C)nn(-c3ccccc3)c2C)n[nH]1 as the compound, how does the Potency read?
Answer: active: 16.9 µM

Question: How did the Potency turn out when Cc1cccc(NC2=NCC(=O)N2CCc2ccccc2)c1 was run?
Answer: inactive

Question: Which Potency does the source give for Cc1ccccc1OCc1nnc(SCC(=O)O)n1Cc1ccccc1 here?
Answer: inconclusive: 37.9 µM [inhibitor, partial curve, poor fit]

Question: With COc1ccc(C(=O)/C=C/c2ccc(O)cc2)c(O)c1CC=C(C)C as the compound, how does the Potency read?
Answer: inconclusive: 33.8 µM [inhibitor, single point]

Question: O=C(OCc1cc([N+](=O)[O-])cc2c1OCOC2)c1ccccn1 was tested. Which Potency did it give?
Answer: inconclusive: 37.9 µM [inhibitor, partial curve, poor fit]

Question: How did the Potency turn out when Cc1ccc(NC(=O)c2cc(-c3ccc4c(c3)OCO4)on2)cc1 was run?
Answer: inactive

Question: For Cc1cccc(-n2c(N)c(-c3nc4ccccc4n3C)c3nc4ccccc4nc32)c1, which Potency is on record?
Answer: inactive

Question: With CCN(CC)CCn1c2c(c(SCC(=O)Nc3cc(OC)cc(OC)c3)nc1=O)CCC2 as the compound, how does the Potency read?
Answer: inactive

Question: With CCCS(=O)(=O)n1nc(-c2ccc(C)cc2)cc1N as the compound, how does the Potency read?
Answer: inconclusive: 23.9 µM [inhibitor, partial curve, poor fit]

Question: O=C(CCCn1c(=O)[nH]c2cc(Cl)ccc2c1=O)NC1CCCCCC1 was tested. Which Potency did it give?
Answer: inconclusive: 4.26 µM [inhibitor, partial curve, poor fit]

Question: Which Potency does the source give for COc1ccc(-c2csc(C)n2)cc1Br here?
Answer: active: 15.1 µM

Question: For Cn1c(CNc2ccccc2O)nc2ccccc21, which Potency is on record?
Answer: inconclusive: 23.9 µM [inhibitor, single point]

Question: How did the Potency turn out when CN(c1ccccc1)S(=O)(=O)c1cccc(NC(=O)CSc2nncs2)c1 was run?
Answer: inconclusive: 21.3 µM [inhibitor, partial curve, poor fit]

Question: With O=C(NCCCN1CCOCC1)c1ccc(-c2ccc(Cl)cc2)o1 as the compound, how does the Potency read?
Answer: inconclusive: 37.9 µM [inhibitor, single point]

Question: With COc1ccc(-c2nc3scc(-c4ccccc4)n3n2)cc1 as the compound, how does the Potency read?
Answer: inconclusive: 8.49 µM [inhibitor, partial curve, poor fit]

Question: Which Potency does the source give for COc1cccc(NC(=O)COC(=O)c2ccc(F)cc2F)c1 here?
Answer: inconclusive: 21.3 µM [inhibitor, partial curve]

Question: Which Potency does the source give for COc1ccc(NC(=O)c2c(C)oc3c2CCCC3)cc1 here?
Answer: inconclusive: 30.1 µM [inhibitor, partial curve, poor fit]

Question: For O=C(Nc1ccc(Cl)cc1)c1ccc2c(c1)N(Cc1ccccc1)C(=O)c1ccccc1S2(=O)=O, which Potency is on record?
Answer: inactive

Question: With O=C(NC(=S)Nc1ccc2c(c1)OCCO2)c1ccco1 as the compound, how does the Potency read?
Answer: active: 1.69 µM

Question: Which Potency does the source give for Cc1sc(NC(=O)c2ccccc2F)c(CN2CCCCC2)c1C here?
Answer: inconclusive: 26.9 µM [inhibitor, partial curve, poor fit]

Question: CN(CC(=O)Nc1cccc(C#N)c1)S(=O)(=O)c1cc2c(cc1Cl)NC(=O)CO2 was tested. Which Potency did it give?
Answer: inactive

Question: For N/C(=N\OC(=O)c1ccco1)c1ccc(Cl)cc1, which Potency is on record?
Answer: active: 23.9 µM

Question: How did the Potency turn out when O=C(CN1CCOCC1)NCc1ccccc1Cl was run?
Answer: inconclusive: 37.9 µM [inhibitor, partial curve, poor fit]

Question: Which Potency does the source give for CCc1nnc(NC(=O)c2ccc(-c3ccccc3Cl)o2)s1 here?
Answer: inconclusive: 30.1 µM [inhibitor, partial curve, poor fit]

Question: Which Potency does the source give for O=C(COC(=O)CCNS(=O)(=O)c1ccccc1F)Nc1nnc(-c2ccccc2)o1 here?
Answer: inconclusive: 37.9 µM [inhibitor, partial curve, poor fit]

Question: For Cc1ccccc1N1C(=O)CC(Sc2nnc(-c3ccccc3)o2)C1=O (stereo not drawn), which Potency is on record?
Answer: inconclusive: 9.53 µM [inhibitor, partial curve]

Question: Which Potency does the source give for O=[N+]([O-])c1cc(CN2CCOCC2)c2cccnc2c1O here?
Answer: inactive

Question: Cc1n[nH]c(C)c1S(=O)(=O)Nc1ccc2c(c1)OCCO2 was tested. Which Potency did it give?
Answer: inconclusive: 21.3 µM [inhibitor, single point]

Question: Cc1nc(NC(=O)c2ccccc2)sc1C was tested. Which Potency did it give?
Answer: inconclusive: 7.57 µM [inhibitor, partial curve, poor fit]

Question: With CN(C)c1ccc(C(=S)N2CCCCCC2)cc1 as the compound, how does the Potency read?
Answer: inconclusive: 23.9 µM [inhibitor, partial curve]

Question: Cc1ccc(/C=c2/sc3nnc(-c4ccccc4Cl)n3c2=O)o1 was tested. Which Potency did it give?
Answer: active: 15.1 µM

Question: COc1cc(NC(=O)CSc2ccc(-c3ccco3)nn2)cc(OC)c1 was tested. Which Potency did it give?
Answer: inconclusive: 23.9 µM [inhibitor, single point]

Question: How did the Potency turn out when O=C(NCCSCc1ccco1)Nc1cc(Cl)cc(Cl)c1 was run?
Answer: active: 26.9 µM

Question: With COc1ccc(N(CC(=O)Nc2ccc3c(c2)OCCO3)S(=O)(=O)c2c(C)noc2C)cc1 as the compound, how does the Potency read?
Answer: inactive

Question: O=C(Nc1sc2c(c1C(=O)O)CCC2)c1cccc(Cl)c1 was tested. Which Potency did it give?
Answer: inconclusive: 23.9 µM [inhibitor, single point]

Question: CCOc1ccc2c(c1)C(NC(C)=O)C(=O)N2CCN1CCOCC1 (stereo not drawn) was tested. Which Potency did it give?
Answer: inconclusive: 37.9 µM [inhibitor, single point]

Question: With Cc1cccc(NC(=O)c2sc3cccc(Cl)c3c2Cl)c1 as the compound, how does the Potency read?
Answer: inconclusive: 4.26 µM [inhibitor, full curve]

Question: How did the Potency turn out when O=C(Nc1ccc2nccnc2c1)Nc1ccccc1Cl was run?
Answer: inconclusive: 7.57 µM [inhibitor, full curve]

Question: Which Potency does the source give for COc1ccc(/C=C2\SC(=S)N(CC(=O)NNC(=O)c3ccncc3)C2=O)cc1 here?
Answer: active: 5.36 µM

Question: With COc1ccc(CNC(=O)Cc2c(C)c3ccc(O)cc3oc2=O)cc1 as the compound, how does the Potency read?
Answer: active: 7.57 µM

Question: For COc1cccc2oc3cc(C#CC4(O)CCCCC4)ccc3c(=O)c12, which Potency is on record?
Answer: active: 0.601 µM

Question: Which Potency does the source give for COc1cc(/C=N/Nc2nncc3ccccc23)cc(OC)c1OC here?
Answer: active: 8.49 µM

Question: For Cc1ccc(OCCn2cc(C(=O)O)c3ccccc32)cc1, which Potency is on record?
Answer: inconclusive: 26.9 µM [inhibitor, single point]

Question: With Cc1ccc(C)c(N2CCN(C(=O)CN3C(=S)NC(C)(C)CC3C)CC2)c1 (stereo not drawn) as the compound, how does the Potency read?
Answer: inactive

Question: How did the Potency turn out when COc1cccc(-c2nc(-c3ccc(NC(=O)c4cccs4)cc3)no2)c1 was run?
Answer: active: 13.5 µM

Question: Which Potency does the source give for COc1ccc(-c2nc3ccccc3s2)cc1NC(=O)c1ccccc1OC here?
Answer: active: 10.7 µM

Question: How did the Potency turn out when Cc1cccc(OCCn2nnc3sc4c(c3c2=O)CCCC4)c1 was run?
Answer: inconclusive: 10.7 µM [inhibitor, partial curve]

Question: With C=CCOc1ccc2c(CC)cc(=O)oc2c1C as the compound, how does the Potency read?
Answer: inconclusive: 15.1 µM [inhibitor, partial curve]

Question: Which Potency does the source give for CCOc1ccc2nc(SC(C)C(N)=O)[nH]c2c1 (stereo not drawn) here?
Answer: inconclusive: 30.1 µM [inhibitor, partial curve, poor fit]

Question: CC(C)c1ccc(NS(=O)(=O)c2ccc3[nH]cc(C(=O)NC4CCCCC4)c(=O)c3c2)cc1 was tested. Which Potency did it give?
Answer: inconclusive: 10.7 µM [inhibitor, partial curve]

Question: With CCN(CC)C(=S)SCC(=O)c1c(C)[nH]c2ccccc12 as the compound, how does the Potency read?
Answer: inconclusive: 13.5 µM [inhibitor, partial curve]

Question: O=C(c1ccc(C(F)(F)F)cc1)C1CCCN(C(=O)CN2C(=O)CSC2=O)C1 (stereo not drawn) was tested. Which Potency did it give?
Answer: inconclusive: 21.3 µM [inhibitor, single point]

Question: Cc1cc(/C=C2\C(=N)N3N=C(CC(=O)N4CCOCC4)SC3=NC2=O)c(C)n1Cc1ccccc1 was tested. Which Potency did it give?
Answer: inconclusive: 23.9 µM [inhibitor, partial curve, poor fit]

Question: For CCOC(=O)c1c(C)oc2cc(Br)c(O)c(Br)c12, which Potency is on record?
Answer: inconclusive: 37.9 µM [inhibitor, single point]
